In paper PMC6212790 one finds binding signal data, which are given here for 172 sequences.

The list shows a part of the results. At the low end of the ranking the order means little.

The target of this assay is T1, GST-Rok-C97-191 (UniProt O34857).
T1 sequence: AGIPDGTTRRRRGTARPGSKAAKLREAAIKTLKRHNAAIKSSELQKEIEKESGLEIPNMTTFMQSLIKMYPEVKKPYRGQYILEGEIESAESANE
The experiment in a line: protein binding microarray.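 Note: rank score from −0.5 (least bound) to 0.5 (best bound).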 Conditions: Rok is a gene silencer of Bacillus subtilis; high values mean tight binding; most listed sequences are background and not binding sites; double strand, one strand shown.
AAGGTGGG: the binding signal was -0.239 E-score.

As for GCGGAATA, the binding signal turned out to be 0.173 E-score. In turn, GGTCAGAC had a binding signal of -0.193 E-score.

In turn, TTCTACAA gave a binding signal of 0.362 E-score. ACATCTCC returned a binding signal of 0.00293 E-score. Consider ATACTACC, for which the binding signal was 0.379 E-score.

Take AACCACCT: the binding signal is -0.117 E-score. With AGAGGCTC, the binding signal was -0.145 E-score. On to ACCCGCAC, for which the binding signal was -0.157 E-score. With ACAGTGGC, the binding signal is -0.115 E-score. The value for GGGTTCAC was -0.121 E-score; that for AGTCAACC was -0.151 E-score. The value for CAGAGATA was 0.215 E-score; that for GAGACCGA was -0.0757 E-score; that for ATCGGCAC was -0.245 E-score. The sequence ACTCACGC gave a binding signal of -0.127 E-score.

The sequence CCTACCAG displayed a binding signal of 0.0329 E-score. ATATCTTC: the binding signal came to 0.344 E-score. TCGCGAGA registered a binding signal of 0.0322 E-score. As for AGAAGTAG, the binding signal amounted to 0.185 E-score. AGCCCCAT: the binding signal is -0.0793 E-score. In turn, AATCCCCT gave a binding signal of -0.124 E-score. Regarding AGGAAGAG, the binding signal is -0.07 E-score. The figure for GAAACGGC is -0.0909 E-score; for ACAACTCG it is 0.00896 E-score. The figure for ACGAGATC is 0.0809 E-score.

In the case of AGAGGACC, the binding signal was -0.212 E-score. In turn, CATTCACC returned a binding signal of 0.00668 E-score.

For the sequence AAACCCTA, the binding signal was determined as 0.0584 E-score. The figure for TGTTCGAA is 0.0431 E-score; for AAACAGCG it is -0.208 E-score; for AACTATGA it is 0.248 E-score.

Regarding ATACTCAA, the binding signal came out at 0.0675 E-score. With CAACTTTC, the binding signal came out at 0.0951 E-score. In the case of AAAAGGTT, the binding signal was determined as 0.0591 E-score. The figure for GCAGACCA is -0.298 E-score; for ACGTGGAG it is -0.0208 E-score; for TCGTCACA it is 0.117 E-score. With CATACAAG, the binding signal was 0.0681 E-score. The sequence CCTCAGGA returned a binding signal of -0.204 E-score. The figure for CCTGAATA is 0.196 E-score; for CGCGTCAC it is -0.124 E-score; for TCCAACCA it is -0.00863 E-score.

On to GATACGAA, for which the binding signal came to 0.0761 E-score. The value for AGTAATCC was 0.0756 E-score. The sequence AAGAGCTA displayed a binding signal of 0.215 E-score.

Regarding TCTCTCCA, the binding signal was -0.123 E-score. AGTGGAAA had a binding signal of 0.183 E-score.

The sequence CTTCTGCC displayed a binding signal of -0.142 E-score. In the case of GATCCTAA, the binding signal amounted to 0.0337 E-score.

With ATAACATG, the binding signal was found to be 0.0615 E-score. For ATCGCAGA, the binding signal is -0.0401 E-score.

As to AAAGAACG, the binding signal worked out at 0.0923 E-score. The sequence ATGTCCAA had a binding signal of 0.196 E-score. Sequence CGTATTAA registered a binding signal of 0.0605 E-score. The sequence ACAAGGAG returned a binding signal of -0.167 E-score. In the case of AACTACGA, the binding signal is 0.283 E-score.

Turning to ACATTTTG, the binding signal is 0.0334 E-score.

In the case of GTACCTGA, the binding signal worked out at 0.0665 E-score. Turning to ATGTCGGC, the binding signal was -0.168 E-score. The value for AAGGAGCA was -0.262 E-score; that for GATCACTA was 0.102 E-score.

In turn, CTCCAAAG showed a binding signal of -0.218 E-score. Regarding AAGTGGGG, the binding signal is -0.194 E-score. Consider CCTAAGCG, for which the binding signal was -0.279 E-score. AAACGCGG showed a binding signal of -0.0305 E-score. Regarding CGAGAGGC, the binding signal is -0.283 E-score. GATAGTCA showed a binding signal of 0.000914 E-score. In the case of GCAGGGAC, the binding signal was -0.31 E-score.

In turn, TGTGTAAA returned a binding signal of 0.111 E-score. AGGCAGTG yielded a binding signal of -0.329 E-score. Regarding CAGCAGTC, the binding signal was -0.00812 E-score. CAGAATTA gave a binding signal of 0.0677 E-score. The figure for CTTCGTTC is -0.204 E-score; for GCGCGAGC it is -0.202 E-score. Take GAGACCGC: the binding signal is -0.222 E-score. The figure for CAGTCCTA is -0.0512 E-score; for ACTGCCTG it is -0.0891 E-score. Take GTAGTTCA: the binding signal was determined as 0.186 E-score. In the case of CATGACAA, the binding signal is 0.0839 E-score. AGTCAGAG showed a binding signal of -0.0374 E-score. Consider CGAATAGA, for which the binding signal stood at 0.0543 E-score.

On to AATCGATG, for which the binding signal came to 0.104 E-score.

In turn, CGGGCTCA displayed a binding signal of -0.279 E-score. GACGTACA came in with a binding signal of 0.0182 E-score. In turn, AAACAGGG returned a binding signal of 0.119 E-score. Regarding CAACGGCC, the binding signal was -0.179 E-score. Regarding TCCAAAGA, the binding signal is -0.0575 E-score. The figure for CAGATGAA is -0.0148 E-score; for GGTATGAC it is 0.0159 E-score. ACACTGGA gave a binding signal of -0.152 E-score.

Regarding AACCGGAA, the binding signal is -0.114 E-score. For GATAAATC, the binding signal was 0.111 E-score. Consider GCATATCA, for which the binding signal amounted to 0.0784 E-score.

ATATACGC had a binding signal of 0.239 E-score.

The sequence ATGAACCG returned a binding signal of -0.148 E-score. Sequence CCGTCCCC had a binding signal of -0.318 E-score. On to CAGCGCTG, for which the binding signal was -0.271 E-score. The value for GCACACAA was -0.0985 E-score. The figure for AGGTGGGA is -0.0303 E-score; for GCCGTAGA it is 0.096 E-score. Regarding TCCTATAA, the binding signal came out at 0.184 E-score. For the sequence AAGCAAGC, the binding signal is -0.165 E-score.

CAGGACGG: the binding signal is -0.0793 E-score.

In the case of GTATCTTA, the binding signal turned out to be 0.308 E-score. CGCACTTA displayed a binding signal of -0.0238 E-score. Sequence CAGAAGCG showed a binding signal of -0.0659 E-score. GGCGGGCA had a binding signal of -0.232 E-score. AGGGCCAC yielded a binding signal of -0.302 E-score. With CTATGAGC, the binding signal is -0.0781 E-score. Consider CTGGGCCC, for which the binding signal was -0.249 E-score. The value for CCAGTTAG was -0.0501 E-score; that for ATGTCTAG was 0.135 E-score; that for AAGCCGGG was -0.111 E-score.

On to CCTAAACC, for which the binding signal is -0.301 E-score. AAAAGCTG returned a binding signal of 0.152 E-score.

On to ATGAGAGA, for which the binding signal is -0.00452 E-score. CCGGTCAC returned a binding signal of -0.178 E-score. ACTACAAA showed a binding signal of 0.195 E-score. With GTTAGACA, the binding signal worked out at 0.0373 E-score. In the case of CTATCGTA, the binding signal amounted to 0.357 E-score. Regarding GTGCTAAA, the binding signal was found to be 0.107 E-score.

CTACAACC had a binding signal of 0.097 E-score.

CTAGAAGA: the binding signal is 0.138 E-score.

The sequence CCGAACCC registered a binding signal of -0.176 E-score. With CACCACGC, the binding signal is -0.284 E-score. AGGCACAA yielded a binding signal of -0.0341 E-score. In the case of ACTGGGCT, the binding signal is -0.135 E-score.

Sequence AATCCCAC displayed a binding signal of -0.164 E-score. The sequence CTTCACTA yielded a binding signal of 0.1 E-score. AAGCTACG returned a binding signal of 0.0766 E-score. The value for GCCTGCAC was -0.223 E-score; that for AACGGGAG was -0.133 E-score. For CAACGTGC, the binding signal is 0.00038 E-score. For TTATTAAA, the binding signal was 0.156 E-score.

Sequence GTGTACTA returned a binding signal of 0.16 E-score. The value for ACATACAG was 0.139 E-score; that for ACGGAAGG was -0.162 E-score.

In turn, CGCATTTC yielded a binding signal of -0.0947 E-score. In turn, CATAGCGC registered a binding signal of -0.0698 E-score. ATTCAGCG returned a binding signal of 0.084 E-score. With GGAACCCC, the binding signal was -0.194 E-score. In the case of CCAAAACA, the binding signal came out at 0.0286 E-score. Turning to AGGATTCC, the binding signal was -0.206 E-score. On to TAGAGTCA, for which the binding signal was -0.0813 E-score. In turn, AGCGTATC gave a binding signal of -0.051 E-score. In turn, GAGACTAA showed a binding signal of -0.0529 E-score. Regarding GAATTGTC, the binding signal is -0.118 E-score. For the sequence CCCTATTC, the binding signal is -0.188 E-score. CAATTTGA displayed a binding signal of -0.0536 E-score. The value for GCACATGA was -0.0422 E-score.

In the case of CAAGAACA, the binding signal was -0.000347 E-score. As for ATCGGACC, the binding signal was -0.111 E-score. ATGCCTAG displayed a binding signal of 0.013 E-score. AACGTTCG came in with a binding signal of 0.00179 E-score.

As to GTAGCCAC, the binding signal is -0.0767 E-score. ACACCTAT came in with a binding signal of 0.194 E-score. Take AGTCGTGG: the binding signal is -0.138 E-score. Sequence GCTACCAA showed a binding signal of 0.237 E-score. In turn, AAACACAC showed a binding signal of 0.217 E-score.

With ATCTGGGG, the binding signal was -0.124 E-score. In turn, ACTCGAGG showed a binding signal of -0.0552 E-score. CGGCCACG gave a binding signal of -0.323 E-score.

AGATGCTG registered a binding signal of 0.0356 E-score.

As to TCCGGCCA, the binding signal is -0.226 E-score. In turn, CGTCGTAC gave a binding signal of -0.0353 E-score. The figure for AGGGAAAA is 0.0795 E-score; for TGAAAAAA it is 0.138 E-score; for GAAGCATA it is -0.0969 E-score. With CAATTTGC, the binding signal is -0.0552 E-score. With GAGTTTGC, the binding signal amounted to 0.136 E-score. The figure for CCCTGAAC is -0.348 E-score.
